Results as given in the supplement of paper PMC10338343.
± gives the standard deviation. Only a part is listed here, and it is no random draw.

These sequences were tested on MIWI (PIWIL1) piRISC loaded with piRNA #1 (30 nt) (assay: pre-steady-state target cleavage rate (min^-1); MIWI and MILI are mouse PIWI proteins and EfPiwi is from a freshwater sponge; tags in brackets are library labels; higher = faster piRNA-guided slicing of the target). Conditions: guide: piRNA #1 5'p-UGAGGUAGUAGGUUGUAUAGUAUCCAGAGG; auxiliary factor: 500 nM mouse GTSF1.
Outline: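 A transcribed, DNA-blocked target RNA library (0.1 nM) and 1 nM active affinity-purified piRISC bearing one synthetic guide were incubated in HEPES–potassium acetate buffer at 33 °C for 0–8 or 0–960 min, either with or without 500 nM GTSF1 partner protein. Uncleaved targets were sequenced, normalised to depth and to weakly complementary targets, and pooled over three trials, with k3 capped at 0.0001 min^-1. The pre-steady-state cleavage rate was derived with a burst-and-steady-state fit.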

| Sequence | pre-steady-state target cleavage rate |
| --- | --- |
| GCUCUGCAUACUAUACAACGUACUACCUCA | 1.21 ± 0.066 |
| GGAGACCUAUCUAUACAACCUACUAGCUCA | 0.517 ± 0.046 |
| GGAGACCUAUGUAUACAGCCUACUACCUCA | 0.0168 ± 0.0042 |
| GGAGACGAUUACUAUACAACCUACUACCUCA | 1.68 ± 0.14 |
| GCUCUGGAUACUAUACAACGUACUACCUCA | 1.32 ± 0.069 |
| GGAGACCUAUGAUAUCAAACCUACUACCUCA | < 0.0001 |
| GGAGACCUACCUAUACAACCUACUACCUCA | 1.19 ± 0.16 |
| GGAGUGGAUUCUAUACAACCUUCUACCUCA | 0.697 ± 0.037 |
| GGAGACCAUACUAUACAUCCUACUUCCUCA | 0.467 ± 0.047 |
| GGAGUGGAUACUAUACUACCUACUUCCUCA | 0.071 ± 0.012 |
| GGAGUGGAUACAAUACAACCUACAACCUCA | 0.345 ± 0.032 |
| GGUCUCGAUACUAAACAACCUACUACCUCA | 1.68 ± 0.12 |
| GGUGUGGAUACUAUACAACCUACUACCUGA | 0.419 ± 0.069 |
| GGAGAGGAUACUAUACAUCCUACAACCUCA | 0.536 ± 0.076 |
| CCUCUCGAUACUAUACAAGCUACUACCUCA | 1.58 ± 0.081 |
| CCUCUGGAUACAAUUCAACCUACUACCUCA | 1.69 ± 0.1 |
| GGUCUGGAUAGUAUAGAACCUACUACCUCA | 0.88 ± 0.07 |
| GGAGACCAUACUAUACAACCUACUGCCUCA | 1.25 ± 0.098 |
| GGAGUGGAUACUAUACUACCUACUACGUCA | 0.323 ± 0.027 |
| CCUCUGGAAACUAUACAUCCUACUACCUCA | 1.93 ± 0.12 |

| Sequence | pre-steady-state target cleavage rate |
| --- | --- |
| GGAGACGAUACUUUACAAGCUACUACCUCA | 0.987 ± 0.062 |
| CCUCUGGGUACUAUACAACCUACUACCUCA | 0.804 ± 0.041 |
| GGAGACCUUACUAUACAACCAACUACGUCA | 0.0518 ± 0.0063 |
| GGAGACCUUACUAUACAACCUACUUGGAGA [g7:g22:cont:t1A] | 0.0938 ± 0.021 |
| GGAGACCAUACUAUACAACCUACUUCGUCA | 0.345 ± 0.054 |
| GGAGACGAUACUAAACAAGCUACUACCUCA | 0.959 ± 0.047 |
| GGAGUGCAUACUAAACAACCUACUACCUCA | 1.26 ± 0.099 |
| GGUCUGCAAACUAUACAACCUACUACCUCA | 1.29 ± 0.093 |
| GGAGACCUAACUAUACUUCCUACUACCUCA | 0.00609 ± 0.004 |
| GCUCUGGAUACUAUACAACCUACUACCUCC [g2:g29:cont:t1C] | 2 ± 0.13 |
| CCUCUGGACUACUAUACAACCUACUACCUCA | 1.52 ± 0.11 |
| GGACUGGAUACUAUACAUGGUACUACCUCA | 0.0159 ± 0.0032 |
| GGUCUGGAUACUAUACAACCAAGUACCUCA | 0.0286 ± 0.0051 |
| GGAGACCUAUGUAUACAACCUACUACCUACA | 0.0758 ± 0.0088 |
| GGACUGGAUACUUUACAACCUACUACGUCA | 0.227 ± 0.034 |
| GGAGACCAUAGUUUACAACCUACUACCUCA | 0.186 ± 0.039 |
| GGAGACGCAUACUAUACAACCUACUACCUCA | 1.91 ± 0.14 |
| GGAGACCUUACUACUACAACCUACUACCUCA | 0.411 ± 0.051 |
| GGACUCGAUAGUAUACAACCUACUACCUCA | 1.45 ± 0.13 |
| GCUCUGGAUACUAUACAACUACUACCUCA | 0.565 ± 0.035 |
